Measurements reported in PubChem BioAssay (NCI).
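Briefly, cells in 96-well plates were exposed to five compound concentrations for 48 h, and endpoints were estimated by linear interpolation. At the GI50, growth is halved. TGI marks complete inhibition of growth.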

System: NCI-H322M lung
Assay: NCI-60 cell line screen, 48 h

| Structure (SMILES) | GI50 [µM] | TGI [µM] |
| --- | --- | --- |
| CN1CCN(c2ccc(C(=O)/C=C/c3cc(C(F)(F)F)ccc3Cl)cc2)CC1 | 13.4 | 26.2 |
| O=C(N/N=C/c1occc1Br)c1[nH]c2ccc(Br)cc2c1-c1ccccc1 | 6.13 | 21.8 |
